The text below walks through data of article PMC4336329 (PLoS ONE, 2015).

The structures appear in SMILES notation. In all, about 310,000 compounds went through this assay and about 2,200 (0.71%) showed an effect of 50% or more. Effects have a minus sign here. The list shows a part of the results.

Chain of human ether-à-go-go-related gene (hERG) potassium channel (Q12809 whole entry, looked up): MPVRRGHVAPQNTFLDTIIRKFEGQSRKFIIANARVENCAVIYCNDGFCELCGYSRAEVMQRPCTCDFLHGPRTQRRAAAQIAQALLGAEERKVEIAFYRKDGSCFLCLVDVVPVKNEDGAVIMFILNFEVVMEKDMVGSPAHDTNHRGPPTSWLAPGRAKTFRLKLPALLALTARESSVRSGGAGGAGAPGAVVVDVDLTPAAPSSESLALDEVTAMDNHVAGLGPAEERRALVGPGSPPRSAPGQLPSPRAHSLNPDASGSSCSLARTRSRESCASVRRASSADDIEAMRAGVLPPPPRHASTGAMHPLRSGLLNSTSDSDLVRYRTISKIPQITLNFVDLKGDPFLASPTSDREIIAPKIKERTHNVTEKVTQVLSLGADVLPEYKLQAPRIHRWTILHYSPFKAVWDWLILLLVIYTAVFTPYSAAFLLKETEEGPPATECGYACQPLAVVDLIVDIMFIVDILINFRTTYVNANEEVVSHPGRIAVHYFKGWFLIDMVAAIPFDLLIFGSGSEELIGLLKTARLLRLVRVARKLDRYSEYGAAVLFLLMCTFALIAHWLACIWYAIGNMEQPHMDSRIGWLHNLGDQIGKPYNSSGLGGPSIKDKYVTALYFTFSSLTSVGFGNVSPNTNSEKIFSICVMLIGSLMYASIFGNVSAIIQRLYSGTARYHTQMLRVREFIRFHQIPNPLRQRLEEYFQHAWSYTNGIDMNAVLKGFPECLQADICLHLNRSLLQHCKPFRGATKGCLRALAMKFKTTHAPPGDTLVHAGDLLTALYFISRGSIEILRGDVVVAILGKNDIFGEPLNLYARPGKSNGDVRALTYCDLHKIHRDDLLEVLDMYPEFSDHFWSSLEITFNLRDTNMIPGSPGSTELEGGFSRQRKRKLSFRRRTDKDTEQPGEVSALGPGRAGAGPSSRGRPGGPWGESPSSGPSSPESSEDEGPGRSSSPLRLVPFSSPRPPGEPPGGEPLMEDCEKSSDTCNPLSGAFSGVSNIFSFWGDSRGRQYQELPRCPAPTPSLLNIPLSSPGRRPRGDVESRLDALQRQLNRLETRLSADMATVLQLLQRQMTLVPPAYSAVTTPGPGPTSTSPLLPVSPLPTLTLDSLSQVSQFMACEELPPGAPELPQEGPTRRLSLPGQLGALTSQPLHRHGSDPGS

This assay concerns the target human ether-à-go-go-related gene (hERG) potassium channel (human, UniProt Q12809). As to the kind of experiment: primary screen, population patch clamp on CHO cells stably expressing hERG.
As for `Cc1ccc(Cn2ccc(NC(=O)c3cc(C4CC4)on3)n2)cc1`, the “hERG current change (%, negative = inhibition) at 1uM” value is listed as 9.57%.
`COCc1nnc(NC(=O)CCSc2ccccc2)s1`: the “hERG current change (%, negative = inhibition) at 1uM” value amounted to 6.94%.
The result for `CCOC(=O)C(C(=O)OCC)N(C#N)c1nc(C)cc(C)n1` reads 2.33%; that for `O=C(Nc1ccccc1N1CCN(C(=O)c2ccc(Cl)cc2)CC1)c1ccc(Br)cc1`, -4.26%.
For the molecule `N#C/C(=C/c1cccc(O)c1)C(=O)NCc1ccc(Cl)cc1`, the “hERG current change (%, negative = inhibition) at 1uM” value stood at 23.5%.
`Cc1ccccc1NC(=O)COC(=O)c1ccc(S(=O)(=O)N2CCCC2)cc1`: the “hERG current change (%, negative = inhibition) at 1uM” value turned out to be 9.05%.
The result for `O=C(NC(=S)NCc1ccccc1)c1ccccc1Br` reads 6.34%; that for `CN(CC(=O)Nc1cccnc1Cl)S(=O)(=O)c1ccc(Cl)cc1`, 9.06%; that for `COc1ccc2sc(N(CCN(C)C)C(=O)/C=C/c3cccs3)nc2c1.Cl`, 0.952%.
The result for `CCN(CC(=O)Nc1c(F)cccc1F)C(=O)Cc1csc(-c2ccc(OC)c(OC)c2)n1` reads 4.29%; that for `Cc1cccc(S(=O)(=O)NCCC(=O)OCC(=O)Nc2ccc(C#N)cc2)c1`, 8.98%; that for `CC(=O)OC(C(=O)Nc1nccs1)c1ccccc1` (stereo not drawn), 7.99%.
Turning to `O=C(N/N=C1\CC2CC=CC12)c1ccc(Br)cc1` (stereo not drawn), the “hERG current change (%, negative = inhibition) at 1uM” value stood at 10.7%.
Consider `Cc1ccc(CNC(=O)CN2CCN(Cc3ccc(Cl)cc3)C2=O)cc1`, for which the “hERG current change (%, negative = inhibition) at 1uM” value was 2.87%.
Regarding `O=C1c2ccccc2C(=O)N1n1cccc1`, the “hERG current change (%, negative = inhibition) at 1uM” value was 11.1%.
`CCCCc1c(O)nc(SCC(=O)N2CCCCC2)n(-c2ccccc2C)c1=O`: the “hERG current change (%, negative = inhibition) at 1uM” value worked out at 5.79%.
Turning to `Cc1ccc2[nH]c3c(c2c1)CN(C(=O)CN1CCCCC1)CC3`, the “hERG current change (%, negative = inhibition) at 1uM” value was -0.784%.
Turning to `COc1cccc(OC)c1C(=O)NC(C)CCc1ccccc1` (stereo not drawn), the “hERG current change (%, negative = inhibition) at 1uM” value was 9.8%.
In the case of `COc1ccccc1NC(=O)C(C)OC(=O)C1CC(=O)N(c2ccc3c(c2)OCCO3)C1` (stereo not drawn), the “hERG current change (%, negative = inhibition) at 1uM” value is recorded as 11.2%.
As for `Cl.OCCN1CCN(CC/C=C2/c3ccccc3Sc3ccc(Cl)cc32)CC1`, the “hERG current change (%, negative = inhibition) at 1uM” value was -4.15%.
The result for `CCC(=O)N(Cc1cc(=O)[nH]c2ccccc12)c1ccc(OC)cc1` reads -2.38%; that for `CC(=O)c1c(O)c2cccc3c2n(c1=O)CCC3`, 14.8%.
On to `CCOC(=O)c1sc(NC(=O)c2cc(-c3ccc(C)cc3)nc3ccccc23)c(C#N)c1C`, for which the “hERG current change (%, negative = inhibition) at 1uM” value came to 8.49%.
Regarding `COc1ccc(NC(=O)CC(=O)Nc2ccc(OC)cc2)cc1`, the “hERG current change (%, negative = inhibition) at 1uM” value came to 8.34%.
Turning to `CCn1c2ccccc2c2nnc(SCC(=O)c3ccccc3)nc21`, the “hERG current change (%, negative = inhibition) at 1uM” value was found to be 11%.
Turning to `O=C(COC(=O)c1ccccc1C(=O)c1ccccc1)Nc1ccc(SC(F)F)cc1`, the “hERG current change (%, negative = inhibition) at 1uM” value is 6.48%.
The result for `COc1cccc(CC(=O)Nc2ccc3c(c2)CCC3)c1` reads 9.08%.
With `O=c1oc2cc([N+](=O)[O-])ccc2nc1/C=C(\O)c1cccc(Br)c1`, the “hERG current change (%, negative = inhibition) at 1uM” value was found to be 7.34%.
For the molecule `COc1ccccc1NC(=O)C1CCCCN1S(=O)(=O)c1ccc(F)cc1` (stereo not drawn), the “hERG current change (%, negative = inhibition) at 1uM” value amounted to 0.408%.
For `Cc1ccccc1OCc1nnc(SCC(=O)N2CCc3ccccc32)n1C`, the “hERG current change (%, negative = inhibition) at 1uM” value turned out to be 5.32%.
`O=[N+]([O-])c1c(NCCO)cc(N2CCN(Cc3ccc4c(c3)OCO4)CC2)c2nonc12`: the “hERG current change (%, negative = inhibition) at 1uM” value is given as 0.979%.
As to `N#CCCn1c(SCC(=O)Nc2ccc(N3CCOCC3)cc2)nc2ccccc21`, the “hERG current change (%, negative = inhibition) at 1uM” value is 3.82%.
In the case of `COc1ccc(NC(=O)c2ccccc2)c([N+](=O)[O-])c1`, the “hERG current change (%, negative = inhibition) at 1uM” value is given as 13.2%.
With `Cc1c(C(=O)Nc2ccc3c(c2)OCCO3)oc2ccc(Br)cc12`, the “hERG current change (%, negative = inhibition) at 1uM” value came to 10.5%.
The result for `Cc1cccn2c(=O)c(/C=C(\C#N)C(N)=O)c(N3CCN(Cc4ccc5c(c4)OCO5)CC3)nc12` reads 0.0831%; that for `COc1ccc(C(C(=O)NC(C)(C)C)N(Cc2ccco2)C(=O)CCC(=O)Nc2ccccn2)cc1` (stereo not drawn), 11.4%; that for `Cc1ccc(S(=O)(=O)NCC(=O)N(CC(=O)NCc2ccco2)Cc2ccc(F)cc2)cc1`, 3.49%.
Turning to `C/C(=N\NC(=O)c1ccccc1)c1ccc(N2CCOCC2)cc1`, the “hERG current change (%, negative = inhibition) at 1uM” value worked out at 13.9%.
The result for `Cc1onc(-c2c(Cl)cccc2Cl)c1/C(N)=N/OC(=O)C1CC1` reads 11.1%; that for `CCCCCN(C(=O)CCC(=O)OC(C)C(=O)Nc1cccc(C#N)c1)c1c(N)n(CCCC)c(=O)[nH]c1=O` (stereo not drawn), 25.1%.
The result for `Cc1nn(C)c(C)c1CN(Cc1nc(-c2ccc(F)cc2F)oc1C)C1CC1` reads 11%; that for `CCC1Oc2ccccc2N(CC(=O)NCCCN2CCCCC2C)C1=O` (stereo not drawn), 15.2%; that for `CCOC(=O)[C@H]1O[C@@H]1C(=O)N[C@@H](CC(C)C)C(=O)NCCC(C)C`, 22.6%.
Regarding `CCC(=O)Nc1ccc(NC(=O)CSc2nnnn2-c2ccc(OC)cc2)cc1`, the “hERG current change (%, negative = inhibition) at 1uM” value is listed as 14.5%.
As to `CC(=O)c1ccc(OCCCC(=O)NCCc2ccc(C(F)(F)F)cc2)cc1`, the “hERG current change (%, negative = inhibition) at 1uM” value is listed as 13.4%.
The result for `COc1ccc(OC)c(NC(=O)CCNC(=O)Cn2cnc3ccccc3c2=O)c1` reads 7.44%; that for `COC(=O)CSc1nnc(-c2ccccn2)n1N`, 10.9%.
With `Cc1nc(NC(=O)CC(C)C)sc1-c1csc(Nc2ccc(Cl)cc2)n1`, the “hERG current change (%, negative = inhibition) at 1uM” value is recorded as 12.5%.
For the molecule `CN1C(=O)/C(=C/c2cn(CC(=O)N3CCCCC3)c3ccccc23)NC1=S`, the “hERG current change (%, negative = inhibition) at 1uM” value is 13.6%.
For the molecule `Cc1ccnc(SCC(=O)Nc2sc3c(c2C#N)CCCC3)n1`, the “hERG current change (%, negative = inhibition) at 1uM” value is on record as 1.08%.
Turning to `CCOc1ccc(S(=O)(=O)N(CC)CC)cc1NC(=O)c1ccc(N2CCCC2=O)cc1`, the “hERG current change (%, negative = inhibition) at 1uM” value came to 29.7%.
With `CC(C)CN(CC(C)C)CC(O)COc1ccc([N+](=O)[O-])cc1.Cl` (stereo not drawn), the “hERG current change (%, negative = inhibition) at 1uM” value is on record as -52.1%.
For `CCC[C@H](N[C@@H](CCC)[C@H](O)c1ccccc1)[C@H](O)c1ccccc1`, the “hERG current change (%, negative = inhibition) at 1uM” value came to 9.11%.
The result for `CCCc1nnc(NC(=O)c2cc3ccccc3oc2=O)s1` reads 8.79%.
As for `Cn1c(=O)cc(SCC(=O)NCCC2=CCCCC2)c2ccc(Cl)cc21`, the “hERG current change (%, negative = inhibition) at 1uM” value is recorded as 8.49%.
With `CC(C)/C=N\NC(=O)CCCCC(=O)N/N=C/C(C)C`, the “hERG current change (%, negative = inhibition) at 1uM” value is reported as 13%.
In the case of `COc1cc(C(C(=O)NC2CCCC2)N(C(=O)c2snc(C(N)=O)c2N)C2CCCC2)cc(OC)c1OC` (stereo not drawn), the “hERG current change (%, negative = inhibition) at 1uM” value was determined as 14.4%.
Consider `Cc1ccc(-c2cc(Cc3ccc(F)cc3)c(=O)[nH]n2)cc1`, for which the “hERG current change (%, negative = inhibition) at 1uM” value came to 11.5%.
For `CCC(C)NC(=O)CNC(=S)N(Cc1ccc(F)cc1)C1CCCCC1` (stereo not drawn), the “hERG current change (%, negative = inhibition) at 1uM” value was determined as 10.8%.
With `CCCn1c(NC(=O)CCS(=O)(=O)c2ccc(C)cc2)nc2ccccc21`, the “hERG current change (%, negative = inhibition) at 1uM” value came to 0.756%.
In the case of `O=C(CCl)N1N=C(c2ccco2)CC1c1ccco1` (stereo not drawn), the “hERG current change (%, negative = inhibition) at 1uM” value was found to be 16.4%.
`COc1cc(/C=C(/C#N)c2ccc(F)cc2)ccc1Oc1ccc([N+](=O)[O-])cn1`: the “hERG current change (%, negative = inhibition) at 1uM” value came out at 14%.
Turning to `Cc1cc(C)nc(NC(=NCCc2c[nH]c3ccccc23)NC(=O)Nc2cccc([N+](=O)[O-])c2)n1`, the “hERG current change (%, negative = inhibition) at 1uM” value is 11.9%.
Turning to `CCCC[C@@H]1CN=C(N)N1CCc1cc(C(F)(F)F)cc(C(F)(F)F)c1`, the “hERG current change (%, negative = inhibition) at 1uM” value worked out at 1.48%.
`Cc1c(C)c2ccc(OCc3ccc(C(=O)O)o3)c(C)c2oc1=O`: the “hERG current change (%, negative = inhibition) at 1uM” value was 10%.
Regarding `COc1ccc(CNC(=O)CSc2nnc3nc(C)cc(C)n23)cc1OC`, the “hERG current change (%, negative = inhibition) at 1uM” value amounted to 7.95%.
As for `CC(NC(=O)COc1ccccc1)C(=O)NC1=NCCS1` (stereo not drawn), the “hERG current change (%, negative = inhibition) at 1uM” value stood at 7.47%.
Turning to `COc1cccc(N(CC(=O)Nc2ccccc2C(=O)N2CCCC2)S(C)(=O)=O)c1`, the “hERG current change (%, negative = inhibition) at 1uM” value is on record as 19.6%.
On to `COCOc1ccc(C=O)cc1OCOC`, for which the “hERG current change (%, negative = inhibition) at 1uM” value was determined as 11.5%.
As to `COc1cc([N+](=O)[O-])ccc1NC(=O)Nn1cnnc1`, the “hERG current change (%, negative = inhibition) at 1uM” value amounted to 6.77%.
Consider `S=c1[nH]nc(COc2ccccc2)n1C1CCCCC1`, for which the “hERG current change (%, negative = inhibition) at 1uM” value was found to be 18.3%.
The result for `COc1cccc(N2C(=O)C3CC=C(Cl)CC3C2=O)c1` (stereo not drawn) reads 4.16%; that for `O=C(c1ccc2c(c1)OCCO2)C1CCN(S(=O)(=O)c2ccccc2F)CC1`, 15.4%.
`NC(=S)N1CCCc2ccccc21`: the “hERG current change (%, negative = inhibition) at 1uM” value was found to be 5.58%.
Regarding `CC1CCCCN1S(=O)(=O)c1ccc(C(=O)Nc2nnc(-c3cccs3)o2)cc1` (stereo not drawn), the “hERG current change (%, negative = inhibition) at 1uM” value is given as 9.02%.
For `CC(C)[C@H](NC(N)=O)C(=O)Nc1ccc(Oc2ccccc2)cc1`, the “hERG current change (%, negative = inhibition) at 1uM” value is on record as 10.8%.
The result for `CNS(=O)(=O)c1cccc(C(=O)OCC(=O)NCc2ccccc2)c1` reads 3.36%; that for `CC(=O)Nc1cc[n+](C(C)C(=O)c2ccc(Cl)cc2)cc1.[Cl-]` (stereo not drawn), 19.9%.
Take `COC(=O)CCN(C(=O)c1cc([N+](=O)[O-])cc([N+](=O)[O-])c1)c1ccccn1`: the “hERG current change (%, negative = inhibition) at 1uM” value was 6%.
For `Oc1ccc(Br)cc1-c1nc2cnccn2c1NC1CCCCC1`, the “hERG current change (%, negative = inhibition) at 1uM” value is recorded as 7.26%.
For the molecule `COc1ccccc1N1CCN(C(=O)CSc2nnc(NC(=O)C3CCC3)s2)CC1`, the “hERG current change (%, negative = inhibition) at 1uM” value is reported as 0.809%.
The result for `Cc1ccc(S(=O)(=O)NC(=O)COc2cc(C)ccc2C(C)C)cc1` reads 14.3%.
For the molecule `O=C(O)c1cccc(CSc2n[nH]c(-c3ccc(Cl)cc3Cl)n2)c1`, the “hERG current change (%, negative = inhibition) at 1uM” value is recorded as 9.09%.
As for `CCn1nc(C)c(CNC(=O)Nc2ccc3c(c2)OCO3)c1C`, the “hERG current change (%, negative = inhibition) at 1uM” value came to 3.07%.
In the case of `COCCNC(=O)c1ccc(Cn2c(=S)[nH]c3cc4c(cc3c2=O)OCO4)cc1`, the “hERG current change (%, negative = inhibition) at 1uM” value came out at 10.8%.
With `COC(=O)c1ccc(/C=C/C(=O)OCC(=O)Nc2ncc(Cl)cc2Cl)cc1`, the “hERG current change (%, negative = inhibition) at 1uM” value is 3.6%.
Consider `CCOc1ccc(NS(=O)(=O)c2ccc(C(=O)NC3CCN(Cc4ccccc4)CC3)cc2)cc1`, for which the “hERG current change (%, negative = inhibition) at 1uM” value amounted to 16.1%.
